From the supplement of paper PMC3334620
Whole data set: some 33,000 sequences, median “E-score (-0.5 to 0.5)” near -0.011, cut for the highest 2% near 0.28. Some of the results follow.

target: T1, Gcr1 (UniProt P07261); assay: PBM E-score (8-mer binding enrichment) (E-score (-0.5 to 0.5)); higher = stronger / more preferred TF binding; most listed sequences are background and not binding sites; conditions: protein concentration: 100 nM; construct: GST-full length
T1 sequence: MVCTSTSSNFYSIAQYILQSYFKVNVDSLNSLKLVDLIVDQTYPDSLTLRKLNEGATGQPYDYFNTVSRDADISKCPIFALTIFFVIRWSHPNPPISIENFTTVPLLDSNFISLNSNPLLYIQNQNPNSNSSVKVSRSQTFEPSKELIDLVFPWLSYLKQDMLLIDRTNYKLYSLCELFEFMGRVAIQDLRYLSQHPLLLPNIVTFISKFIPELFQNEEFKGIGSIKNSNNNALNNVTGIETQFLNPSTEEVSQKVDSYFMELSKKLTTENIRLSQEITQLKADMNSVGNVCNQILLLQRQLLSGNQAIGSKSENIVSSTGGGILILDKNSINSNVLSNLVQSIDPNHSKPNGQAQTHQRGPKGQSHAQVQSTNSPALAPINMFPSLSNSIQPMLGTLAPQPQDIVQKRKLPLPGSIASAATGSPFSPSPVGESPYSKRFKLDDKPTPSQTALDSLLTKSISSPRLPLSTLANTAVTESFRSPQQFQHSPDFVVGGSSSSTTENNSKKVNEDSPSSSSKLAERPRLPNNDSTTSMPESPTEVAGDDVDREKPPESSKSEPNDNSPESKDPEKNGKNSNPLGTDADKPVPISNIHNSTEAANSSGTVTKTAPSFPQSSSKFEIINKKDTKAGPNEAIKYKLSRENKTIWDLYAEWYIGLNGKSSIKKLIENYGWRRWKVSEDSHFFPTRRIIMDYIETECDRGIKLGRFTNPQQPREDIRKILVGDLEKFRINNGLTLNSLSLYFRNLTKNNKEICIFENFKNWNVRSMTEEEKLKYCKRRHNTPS
Description: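 Universal 'all 10-mer' protein binding microarrays (Agilent AMADID 015681) probed with GST-tagged S. cerevisiae TFs (full-length or DBD) made by in vitro transcription/translation (PURExpress), about 100-200 nM. Bound TF was detected with fluorescent anti-GST. Each ungapped 8-mer (which stands for itself and its reverse complement) is scored by the PBM enrichment score (E-score), a modified Wilcoxon-Mann-Whitney statistic from -0.5 to +0.5, computed with the Universal PBM Analysis Suite. Scale: above 0.35 generally sequence-specific binding.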

Sequence | PBM E-score
TCTCAAGA | 0.146
AACGCAAT | 0.129
AAGCATCA | -0.0253
ACCACTTC | 0.234
ACTTGCGC | 0.0925
CCATTCTC | 0.0511
AGCTGCGC | -0.0402
TAAATCTA | 0.138
AGGGAAGG | -0.218
ATAGTACA | 0.0554
CGGTGTAG | -0.0962
AGGACCAA | -0.0896
CATAAAAG | -0.0258
CCACCTAC | -0.158
AACTCCAA | -0.093
CAACAAGA | 0.0034
AGGAGTAG | 0.169
AGATAGGA | -0.019
ACATCGAA | -0.265
CGTTTCTC | -0.113
CGCCCCAA | 0.139
GCTGTCCC | -0.132
GAGTTCCA | 0.123
AGCGTGCC | -0.142
CTCAGTAC | -0.133

Sequence | PBM E-score
ACTGGCTA | 0.00213
CCTCTGTC | -0.0698
CACGTAAA | 0.0736
GACGTCAC | -0.169
AAAAGGAT | -0.00496
ACCATAAC | 0.0527
AGAAACAC | 0.0738
CCCGCTAC | 0.0999
ACTTACAT | -0.127
ACTCTTTG | 0.00433
TCGGGCCA | -0.184
AACTCACA | -0.0268
CCAACCAC | -0.0292
CTAAGAAA | -0.0424
AGCTGCAC | -0.112
GACTCCAC | 0.16
ACTACCCT | -0.11
ACCCTTAA | -0.111
ACCAACAC | 0.0251
CCGTCCAA | 0.13
AGGATCGC | 0.198
CGAGTACA | 0.01
GCAGGCAC | -0.0907
ACGACCGT | -0.27
ACAGGGGT | -0.0188

Sequence | PBM E-score
AGCAGCAA | 0.0994
GGGCGGGA | 0.138
AGCGTTTG | -0.0376
CGGAGTGC | -0.0122
AACCGGCA | 0.125
CCATGCAG | -0.0643
ATCGCGGC | 0.00952
CACTCAAG | 0.026
ACATTTCT | -0.0213
AGGGCAAC | -0.152
GCGCCTCA | -0.0124
CGAACGCA | 0.0901
ATTGCTTC | -0.00997
AAAATAAG | 0.0722
CCTCCATC | -0.181
CAGGTTGA | -0.0942
CACATAGG | 0.157
AAAACAAC | -0.0583
CGCAACAA | -0.123
GCTTCTAA | 0.116
CCCATATC | 0.114
ATTTCCAG | 0.134
CCCTTAAA | 0.204
GGTAGGGA | -0.162
AAGGCCGG | -0.139

Sequence | PBM E-score
TCGTTACA | 0.126
CCTTAGTC | -0.169
AGCAACTA | 0.221
GAGGCGAC | -0.165
CTGGTTAC | 0.157
ATCTTAAT | 0.0415
GGCTCGGA | -0.283
CAAGCGAA | -0.152
TCGGCCCA | -0.12
ATTTGGGG | 0.23
CAAAGTTA | -0.00057
CTGTAGCA | 0.0373
AATCCATC | -0.0449
GCTTAGAA | -0.0332
CCATCCGC | -0.0189
AAGTTTGT | -0.0246
AGCACCAA | 0.25
AAGGATTG | -0.098
ACATCGTG | 0.0249
CTCTCTCA | -0.322
CATCTCAC | -0.0591
CACACACC | -0.0217
CTCCGGCC | -0.281
AACCGATC | -0.0754
GTCACATA | 0.192

Sequence | PBM E-score
CGCATTGC | -0.0532
ATGCCGTA | 0.0247
CTGAACGA | 0.00724
CACGCCTG | -0.126
AAGTACCG | 0.0625
AGTAAGCG | -0.12
AAGTTCTC | -0.0896
TATGCTAA | -0.0329
CCACCGTC | -0.105
AGACAGCC | -0.106
CCCTTTAA | -0.052
TATACGGA | -0.0408
CGGATCAC | 0.111
GCCTTACA | -0.0505
CGTATCGC | 0.0929
CGCACTAA | 0.117
ACGAGGAC | -0.152
CGTAATAA | -0.0172
TACAGCCA | -0.22
TTCCACAA | 0.347
CTCCTCTC | 0.089
GCCCCCAC | 0.084
ATCGAAGA | -0.0526
GAGCCGAA | -0.0454
AAGGGAAT | -0.18

Sequence | PBM E-score
ACTGACAC | -0.0565
ATTCCACC | 0.0984
CGATCCAC | -0.153
ATGCAGGC | 0.0026
AAAGAGGC | 0.146
CAAGGCAG | -0.104
AGGCGTGA | -0.191
TGGCGTAA | -0.147
CCTCAAGG | -0.104
ACCCACCG | -0.0537
CCGCTCCA | 0.101
GATAAGCC | -0.196
CACCGAAC | -0.117
ACGTTAAT | -0.0343
CCCCGTTC | -0.082
AACCGTAC | -0.126
CGTAGTTA | -0.1
ATCGGGAA | 0.0657
CACGCGTG | 0.0968
TACCCAGA | 0.229
CCGATCAG | -0.0573
AGCGCACA | -0.137
GTAATCAC | -0.0227
GGCTTGTA | -0.16
ACATGGGA | -0.0213

Sequence | PBM E-score
ATTACTAG | 0.155
GAAGGGGA | -0.0804
GCGGCCAA | -0.0612
ATTCCTGG | 0.165
CACAATTA | 0.066
ACACGGAC | -0.00335
GACCTTCC | -0.171
GACCGGTC | -0.0285
GTATGTAA | -0.00739
AGGCTCCA | 0.263
CATATTAG | 0.117
CCCGTAAA | 0.0838
AACGGCCG | 0.0896
AACCTCTC | -0.0178
AGACGTAC | -0.0811
CCCAGGCA | -0.0272
CCGTGAGG | -0.0966
CGATACTC | -0.101
ACAACATG | -0.0588
ATGCGGAG | 0.137
AGTTCTAT | -0.184
ACGAGTGA | -0.0397
